The results in this text go back to ChEMBL document CHEMBL1201862, “PubChem BioAssay data set” (2004).

Each structure is given as a SMILES string.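 Grown in 96-well plates, cells were treated for 48 hours with each compound at five concentrations. Insufficient inhibition: endpoint recorded as highest concentration tested. GI50 = concentration required for 50% inhibition of growth.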 The source made the active and inactive calls. No stated cut-off is given here; in the data, active = GI50 up to about 1.1 µM and inactive = higher. A value given as a limit tells only on which side of the number the result lay.

For this assay, the system named is NCI-H322M. Briefly: NCI-60 cell line screen, 48 h.
Regarding `O=S(=O)(c1ccccc1)N1CCN(S(=O)(=O)c2ccccc2)c2ccccc21`, the GI50 was inactive: > 100 µM.
As for `O=C1c2cc(O)c(O)cc2O[C@H](c2ccc(O)c(O)c2)[C@H]1O`, the figure is inactive: > 100 µM; as for `C=C1C2CCCC1C1(S(C)(=O)=O)CCCCC21O` (centres undefined), inactive: > 100 µM; as for `Cc1cc2c(cc1Cl)SSc1cc(Cl)c(C)cc1S(=O)(=O)Nc1nc(N)nn1C(O)n1nc(N)nc1NS2(=O)=O`, inactive: > 10 µM.
As for `COC(=O)C1CCCC2(C1)OCCO2` (centres undefined), the figure is inactive: > 100 µM.
As to `S=c1[nH]n2c(CCCCCCCCc3nnc4sc(=S)[nH]n34)nnc2s1`, the GI50 is inactive: > 100 µM.
As for `O=C(OCc1ccccc1)N1c2cc([N+](=O)[O-])ccc2C(=O)N2CCC[C@H]2C1O` (some centres undefined), the figure is inactive: > 100 µM.
As for `CCCC(CC)c1c(O)c(O)c(C(CC)CCC)c(C(CC)CCC)c1C(CC)CCC` (centres undefined), the figure is inactive: > 10 µM; as for `C[C@]12CCC[C@H](O)[C@H]1C[C@H](CO)CC2`, inactive: > 100 µM; as for `O=C(NCCNCCO)N/N=C/c1ccc([N+](=O)[O-])cc1`, inactive: 71.1 µM.
As for `Cn1c(C2CCCc3c2c2ccccc2n3C)cc2ccccc21` (centres undefined), the figure is inactive: > 318 µM.
In the case of `CC(=O)CCn1ncc(Cl)c(Cl)c1=O`, the GI50 was inactive: 17.2 µM.
As for `C=CCCn1nc(-c2ccccc2)oc1=O`, the figure is inactive: > 100 µM.
As for `O=C1CN(/N=C/c2ccc(-c3ccc(F)cc3)o2)C(=O)N1`, the GI50 is inactive: > 100 µM.
As for `Cc1cccc(-c2cccc(COCc3cccc(-c4cccc(CO)n4)n3)n2)n1`, the figure is inactive: > 50 µM; as for `CCCCCCCCCCCCOC(=N)N1CCOCC1`, inactive: 16.5 µM.
As for `COC(=O)C(CNC(=O)/C=C/c1ccc(OC(C)=O)c(OC(C)=O)c1)NC(=O)/C=C/c1ccc(OC(C)=O)c(OC(C)=O)c1` (centres undefined), the figure is inactive: > 100 µM; as for `N#CC(C#N)C(c1ccccc1)c1ccccc1`, inactive: > 100 µM.
As for `COc1cc(CCCOC(=O)/C=C/c2ccc(O)c(O)c2)cc(O)c1O`, the figure is inactive: > 100 µM; as for `OC(c1ccccc1)(c1ccccc1)c1cccnc1`, inactive: > 100 µM.
Regarding `COc1ccccc1CNC1=Nc2ccncc2S(=O)(=O)N1c1ccccc1`, the GI50 was inactive: > 100 µM.
As for `CC1=NN(c2nc(N)nc(CF)n2)C(C)(C)C1`, the figure is inactive: > 100 µM; as for `COC(=O)n1c(=O)nc2c3c(ncn21)Oc1c(c(-c2ccccc2)nn1-c1ccccc1)C3c1ccc(Cl)cc1` (centres undefined), inactive: 1.47 µM; as for `O=C(CCCN1CCC(Nc2ccccc2)(c2nnnn2C2CCCCC2)CC1)c1ccc(F)cc1`, inactive: 1.93 µM.
As for `Cc1cccc(-c2nnc3s/c(=C\c4ccc(N(C)C)cc4)c(=O)n23)c1`, the figure is inactive: > 100 µM; as for `O=C(O)C(=O)/C=C\c1ccc(Cl)cc1`, inactive: > 100 µM.
As for `O=C(Nc1nnc(-c2ccccc2)o1)C(SC(=S)N1CCCCC1)c1ccccc1` (centres undefined), the figure is inactive: 13.8 µM; as for `CN(c1ccc(Cl)cc1)S(=O)(=O)c1ccc([N+](=O)[O-])cc1`, inactive: > 100 µM; as for `NCC(=O)Nc1ccc(S(=O)(=O)O)c2cc(S(=O)(=O)O)cc(S(=O)(=O)O)c12`, inactive: > 100 µM.
Regarding `CC(C)C(=O)CP(=O)(O)O`, the GI50 was inactive: > 100 µM.
As for `CCCCCCCCCCCCCCCCOP(=O)(O)Oc1ccc(/C=C\c2ccc(OP(=O)(O)OCCCCCCCCCCCCCCCC)cc2)cc1`, the figure is inactive: 67.6 µM; as for `CC12CO[C@@](C)(CC(S(=O)(=O)c3ccccc3)C1)O2` (some centres undefined), inactive: > 100 µM.
Take `COC(=O)CC1CCN(C#N)CC1CC[N+](=O)[O-]` (centres undefined): the GI50 is inactive: > 100 µM.
Consider `CCC[C@H]1C(=O)N=C(N)N1C(=O)OCc1ccccc1`, for which the GI50 was inactive: > 100 µM.
